The text below walks through data of ChEMBL document CHEMBL4888484, “Replenishing the malaria drug discovery pipeline: Screening and hit evaluation of the MMV Hit Generation Library 1 (HGL1) against asexual blood stage Plasmodium falciparum ,using a nano luciferase reporter read-out” (2022).

Each structure is given as a SMILES string. In all, about 150,000 compounds went through this assay and about 540 (0.36%) showed an effect of 50% or more. The list shows a part of the results.

This test deals with Plasmodium falciparum. As to the kind of experiment: Primary screen in NF54 nanoGlo assay, in single point, at 2uM, 72h; a lower Z score goes with more inhibition. Format: functional, Erythrocyte. The conditions noted are these: timepoint 72 hour.
As to `O=C(NCC(F)F)Nc1cccc(-c2cn[nH]c2)c1`, the “% Inhibition” value was -5% and the Z score was found to be 0.53.

As for `CCN1N=C(C(=O)N2CCC(C)CC2)S(=O)(=O)c2ccccc21`, the “% Inhibition” value worked out at 1% and the Z score is -0.07.

On to `Cc1ccc(Cn2cnc3c2c(=O)n(C[C@H]2CCCO2)c(=O)n3-c2ccc(F)cc2F)cc1`, for which the “% Inhibition” value is reported as -14% and the Z score was found to be 1.4.

With `C=C(C)CN(CC)C(=O)Nc1ccc(-n2ncn(C)c2=O)cc1`, the “% Inhibition” value is -8% and the Z score worked out at 0.99.

For `CC(C)(CNc1nc(CC2CC2)nc2c1CCNCC2)N1CCOCC1`, the “% Inhibition” value was -4% and the Z score worked out at 0.7.

In the case of `Cc1ccc(OCCCN(C)C(=O)[C@H]2CCN(C)C2)cc1C`, the “% Inhibition” value is given as -15% and the Z score came to 1.87.

Regarding `CC(NC(=O)CC1CCCCC1)C(=O)NCC(C)N(C)C` (stereo unspecified), the “% Inhibition” value is recorded as -3% and the Z score amounted to 0.35.

Take `Cc1cccc(-c2ncc(C(=O)NC[C@H]3CCS(=O)(=O)C3)c(O)n2)c1`: the “% Inhibition” value is recorded as -3% and the Z score is listed as 0.51.

Turning to `O=C(CNc1cc(F)ccc1OCC(F)(F)F)NC(=O)NC1CC1`, the “% Inhibition” value is -10% and the Z score was 1.6.

Regarding `CCCc1nnc(N2CCC(Oc3ccccc3Cl)CC2)o1`, the “% Inhibition” value is -11% and the Z score stood at 1.79.

Turning to `Cc1n[nH]c(C)c1CNC(=O)c1cc(Cn2c(C)nc3ccccc32)[nH]n1`, the “% Inhibition” value amounted to 12% and the Z score is listed as -1.53.

Take `CC(=O)NCCCN[C@@H](C)c1ccc(Br)cc1F`: the “% Inhibition” value was -14% and the Z score was found to be 1.89.

On to `Cc1noc(CNC(=O)N[C@@H](C)C(C)C)n1`, for which the “% Inhibition” value came to 4% and the Z score is on record as -0.51.

Take `O=C1NCCN2CCN(S(=O)(=O)c3cccc4nsnc34)CC[C@@H]12`: the “% Inhibition” value was determined as 3% and the Z score is on record as -0.52.

Regarding `CCOc1cc(C(=O)N[C@@H](CO)C2CCOCC2)n[nH]1`, the “% Inhibition” value turned out to be 4% and the Z score is -0.5.

As to `COc1ccc(CC2(CCC(=O)N3CCCC(C)C3)CCC(=O)N2)c(F)c1` (stereo unspecified), the “% Inhibition” value is -6% and the Z score amounted to 1.06.

As to `CC(C)N1C[C@@H](C(=O)N(C)CC(=O)NC(C)(C)C)CC1=O`, the “% Inhibition” value is given as -3% and the Z score is given as 0.53.

Take `Cc1nc([C@H](C)N(C)Cc2cc(C(N)=O)oc2C(C)(C)C)c(C)s1`: the “% Inhibition” value came to 4% and the Z score is given as -0.47.

As for `Cc1nc(N2CCN(C)CC2)ncc1-c1cc(=O)[nH]c(N2c3ccccc3C[C@@H]2C)n1`, the “% Inhibition” value worked out at 1% and the Z score is recorded as -0.1.

On to `O=S(=O)(c1cnc2n1CCC2)N1CC2(CCCC2)c2cccc(Cl)c21`, for which the “% Inhibition” value is -4% and the Z score was determined as 0.72.

In the case of `CCCN(CCC)S(=O)(=O)c1cc2c(cc1Cl)Oc1cc(C)ccc1NC2=O`, the “% Inhibition” value is -1% and the Z score worked out at 0.18.

Regarding `O=C(Nc1ccc2c(c1)OCO2)c1nnc(C(=O)N2CCC(C(=O)N3CCCC3)CC2)s1`, the “% Inhibition” value was -8% and the Z score was determined as 1.22.

As to `CC(O)CC1COCCN1C(=O)NCCC1Cc2ccccc2C1` (stereo unspecified), the “% Inhibition” value was -9% and the Z score came out at 0.95.

For the molecule `CCCc1cnc(C)nc1N1CCN(Cc2ccncc2Cl)CC1`, the “% Inhibition” value is -13% and the Z score was determined as 1.53.

On to `OC[C@H]1COc2ccccc2[C@H]1NCC1(O)CCCC1`, for which the “% Inhibition” value is -2% and the Z score stood at 0.45.

For the molecule `O=C(CN1CCN(CC(=O)c2ccccc2)CC1)c1ccccc1`, the “% Inhibition” value worked out at 0% and the Z score is recorded as -0.02.

For the molecule `Cc1ccc(S(=O)(=O)Nc2c(S(=O)(=O)c3ccccc3)c3nc4ccccc4nc3n2CCc2ccccc2)cc1`, the “% Inhibition” value stood at 86% and the Z score is on record as -14.39.

`CCOC(=O)CNC(=O)[C@@H](OC(=O)c1ccccc1)C(C)(C)CN1CCCC1=O`: the “% Inhibition” value is listed as -9% and the Z score was 1.13.

In the case of `CCCc1noc([C@H](C)NC(=O)CNC(N)=O)n1`, the “% Inhibition” value turned out to be 4% and the Z score is recorded as -0.49.

`CC(C)(C)OC(=O)N1CCC(c2c(C(=O)NCc3ccc(F)cc3)cnn2-c2ccc(F)cc2F)CC1`: the “% Inhibition” value was -10% and the Z score is 1.7.

As to `COc1ccccc1[C@H](CNCc1nc(C2CC2)no1)N1CCCC1`, the “% Inhibition” value was -1% and the Z score amounted to 0.07.

With `CCc1nn(C)cc1NC(=O)N1CCN(C(=O)c2ccc(F)cc2)CC1`, the “% Inhibition” value is on record as 5% and the Z score is reported as -0.74.

As for `CC1CCC2(CC1)N=C(c1ccccc1)C(=O)N2CC(=O)Nc1ccc2c(c1)OCCO2` (stereo unspecified), the “% Inhibition” value amounted to 10% and the Z score is reported as -1.8.

As to `CC(=O)N1CCC[C@H]1C(=O)NC(C)Cn1cccn1` (stereo partly specified), the “% Inhibition” value turned out to be 2% and the Z score was -0.39.

As for `O=c1cccnn1C[C@@H](O)CCc1ccccc1`, the “% Inhibition” value turned out to be 2% and the Z score is given as -0.29.

In the case of `COc1cc(CN2CC[C@H](NS(=O)(=O)N(C)C)[C@@H](O)C2)ccc1F`, the “% Inhibition” value is recorded as -9% and the Z score amounted to 0.86.

Consider `COc1cccc([C@@H]2CCCCN2C(=O)Nc2ccnn2CC(C)C)c1`, for which the “% Inhibition” value is listed as -7% and the Z score amounted to 1.26.

Regarding `C#CCN1CCCCC1C(=O)NCC(C)(O)c1cnn(C)c1` (stereo unspecified), the “% Inhibition” value is recorded as 4% and the Z score is -0.5.

`CC(C)c1noc(CCCn2cnc3ccccc3c2=O)n1`: the “% Inhibition” value is reported as -21% and the Z score amounted to 3.06.

In the case of `O=C(Cc1cccnc1)NCc1cncc(-c2ccco2)c1`, the “% Inhibition” value worked out at 12% and the Z score was -1.54.

Take `O=C(COc1cc(F)cc(F)c1)NC[C@@H](CO)c1cccnc1`: the “% Inhibition” value was -9% and the Z score was 1.55.

`CCc1nc(CNC(=O)NCc2ccsc2)cs1`: the “% Inhibition” value is -9% and the Z score stood at 1.56.

Take `CN(C[C@H]1COc2ccccc2O1)C(=O)c1ccc2c(c1)OCO2`: the “% Inhibition” value is on record as 0% and the Z score came out at 0.03.

In the case of `CO[C@@H](CNS(=O)(=O)Cc1cc(F)cc(F)c1)c1ccsc1`, the “% Inhibition” value was -11% and the Z score came to 1.42.

In the case of `O=C(Cn1c(-c2cncs2)nc2ccccc21)Nc1ccc2c(c1)OCCO2`, the “% Inhibition” value is on record as -11% and the Z score was 2.17.

For the molecule `CC(C(=O)N(C)C)S(=O)(=O)NC1CCCC2OCCC12` (stereo unspecified), the “% Inhibition” value is recorded as -13% and the Z score came to 2.01.

On to `Cc1csc(C(=O)N2CCC[C@H]2CO)n1`, for which the “% Inhibition” value is reported as -11% and the Z score is 1.39.

In the case of `Cc1ncsc1C(=O)Nc1nnc(C)n1C1CC1`, the “% Inhibition” value came to 8% and the Z score is on record as -1.37.

Regarding `Cc1cc([C@H](Nc2ccccn2)c2ccccc2)c(NC(=O)c2ccccc2)s1`, the “% Inhibition” value is given as 31% and the Z score is recorded as -0.7.

In the case of `Cc1nc2ccccc2c(-c2ccc(Cl)cc2)c1C1=NN(C(=O)CCC(=O)O)[C@H](c2ccc(Cl)cc2)C1`, the “% Inhibition” value is given as -11% and the Z score came out at 1.67.

`Cc1cccc2nc(CN3CCN(S(=O)(=O)c4ccc(C(N)=O)o4)CC3)cn12`: the “% Inhibition” value was -11% and the Z score was found to be 1.45.

For `CCN(C(=O)c1ccc(F)c(Br)c1)c1ccncc1`, the “% Inhibition” value is reported as -2% and the Z score stood at 0.19.

Consider `CCCc1ccc(C(=O)Cn2ncc(C(F)(F)F)cc2=O)cc1`, for which the “% Inhibition” value was -3% and the Z score was determined as 0.44.

In general, % Inhibition refers to the drop in the measured response relative to a control, in per cent.
